The values below come from PubChem BioAssay AID488969 (Vanderbilt High Throughput Screening Facility, 2010).

Over roughly 110,000 compounds, “z-score” has its median near -0.1; the highest 2% begin near 2. The list shows a part of the results. Activity calls are given as the source filed them.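 How the source made its calls: active means z-score in the third read window above 3 or below -3; inactive means the rest.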

This assay has as its target Metabotropic glutamate receptor 8 (Rattus norvegicus) (UniProt P70579). The experiment in a line: mGluR8 Gi/Go-coupled signaling modulation – cell-based, rat, thallium flux, HTS, primary screen (AID 488969). As to conditions: HEK293 rat mGluR8, GIRK (G protein-gated inwardly rectifying potassium channel) thallium flux, FluoZin2; at 10 µM; stronger effect = higher value; submaximal glutamate (EC20) added with thallium.
Chain of UniProt P70579 (P70579 whole entry, looked up): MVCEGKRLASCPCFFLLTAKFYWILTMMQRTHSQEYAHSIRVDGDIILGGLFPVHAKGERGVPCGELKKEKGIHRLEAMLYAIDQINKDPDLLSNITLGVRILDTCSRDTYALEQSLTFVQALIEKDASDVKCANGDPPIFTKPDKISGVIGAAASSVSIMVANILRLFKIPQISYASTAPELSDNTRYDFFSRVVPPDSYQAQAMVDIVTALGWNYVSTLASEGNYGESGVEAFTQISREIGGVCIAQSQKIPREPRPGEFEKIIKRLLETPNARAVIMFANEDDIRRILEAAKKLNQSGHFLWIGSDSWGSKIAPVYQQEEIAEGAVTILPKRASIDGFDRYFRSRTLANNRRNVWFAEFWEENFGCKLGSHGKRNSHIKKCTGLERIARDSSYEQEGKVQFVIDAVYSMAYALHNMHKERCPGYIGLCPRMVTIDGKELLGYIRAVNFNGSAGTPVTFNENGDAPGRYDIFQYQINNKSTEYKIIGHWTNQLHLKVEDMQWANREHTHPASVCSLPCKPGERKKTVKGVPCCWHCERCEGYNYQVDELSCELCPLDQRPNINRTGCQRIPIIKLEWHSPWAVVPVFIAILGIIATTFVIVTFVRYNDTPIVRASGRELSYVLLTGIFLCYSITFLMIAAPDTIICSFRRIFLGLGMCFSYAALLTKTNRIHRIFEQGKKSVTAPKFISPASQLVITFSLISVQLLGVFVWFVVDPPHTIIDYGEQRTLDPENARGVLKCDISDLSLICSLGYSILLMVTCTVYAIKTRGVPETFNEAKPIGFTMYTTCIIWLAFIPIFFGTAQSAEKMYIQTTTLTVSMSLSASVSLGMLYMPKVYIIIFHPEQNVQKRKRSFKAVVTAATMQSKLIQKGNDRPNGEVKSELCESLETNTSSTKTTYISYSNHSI
In the case of `O=C(N/N=C/c1ccc(N2CCCCC2)o1)C(O)(c1ccccc1)c1ccccc1`, the z-score is -0.675. For the molecule `O=C(c1sc2cc(F)ccc2c1Cl)N1CCN(c2cccc(Cl)c2)CC1`, the z-score was -0.403. For `Clc1ccc(N=c2ssnc2Cl)cc1`, the z-score was -0.0573.

As for `CCOC(=O)C(C)Sc1snnc1C` (configuration not stated), the z-score is 0.011. As for `O=C(c1cccc([N+](=O)[O-])c1)N(c1ccccn1)c1ccccn1`, the z-score is -0.0172. Regarding `O=C(c1cccnc1NCc1ccccc1)N1CCOCC1`, the z-score worked out at 0.0863. `CCc1nc(SCC(=O)Nc2ccc3c(c2)OCCO3)c2oc3ccccc3c2n1` yielded a z-score of 0.21. Molecule `CCCc1cc(=O)[nH]c(SCC(=O)N2N=C(c3ccc(Cl)cc3)CC2c2ccco2)n1` (configuration not stated) displayed a z-score of -0.126.

In turn, `CC1(C)C(c2ccco2)=[N+]([O-])C2(CCCCC2=O)N1O` (configuration not stated) came in with a z-score of 0.197.

In turn, `CCCCc1ccc(NC(=O)COc2ccc(C(=O)Nc3ccccc3OC)cc2)cc1` returned a z-score of -0.367. Molecule `O=C1CCCN1c1cc(Cl)ccc1Cl` registered a z-score of 0.195. Molecule `CCOC(=O)C(NC(=O)Nc1ccc(O)cc1)(c1ccccc1)C(F)(F)F` (configuration not stated) had a z-score of -0.184.

`O=C(Nc1nccs1)c1cccc(NC(=O)C2CC2)c1` came in with a z-score of -0.0597. The result for `CCOc1ccc(-c2n[nH]c(C)c2-c2ccccc2OC)c(O)c1` reads -0.365; that for `COc1cc(C2CC(=O)N3CN(Cc4ccccc4)CSC3=C2C#N)ccc1OCc1ccccc1` (configuration not stated), -0.801. The result for `CC(=O)Nc1ccc(S(=O)(=O)NCC2CCC(C(=O)N3CCCCCC3)CC2)cc1` (configuration not stated) reads -0.0258. `CCOC(=O)c1cnn(-c2nc(-c3ccccc3)cs2)c1C(F)(F)F` gave a z-score of -0.141. Take `O=c1oc2ccccc2cc1-c1csc(Cc2nc(-c3ccc(Cl)cc3)cs2)n1`: the z-score was determined as 0.0414. Molecule `CC(=O)NC1C(Oc2ccccc2C)OC2COC(c3ccco3)OC2C1O` (configuration not stated) displayed a z-score of -0.111.

The molecule `Cc1cccc(NC(=S)NNC(=O)Cc2ccccc2)c1` had a z-score of 0.0541. Consider `Cc1ccc(C)c(NC(=O)C(C)CC2COCCO2)c1` (configuration not stated), for which the z-score turned out to be 0.147. The molecule `Cn1c(CSCc2ccc(F)cc2)nnc1SCC(=O)N1CCN(c2ccccc2)CC1` yielded a z-score of -0.4. On to `Nc1cccc(-c2cc(-c3ccccc3)nc(-c3cccc(N)c3)n2)c1`, for which the z-score is -0.135. Then `CCSc1nc2c(c(=O)n(C)c(=O)n2C)n1Cc1ccc(Cl)cc1`, with -0.345. The result for `Cc1cccc(C)c1NC(=O)CN(C)C(=O)C(c1ccccc1)c1ccccc1` reads -0.041. `Cn1c(SCC(=O)Nc2ccc3c(c2)OCO3)nnc1-c1cnccn1` yielded a z-score of -0.985. The result for `CC(C)OC(=O)c1c(NC(=O)c2ccco2)sc2c1CCCC2` reads 0.0071; that for `Cc1ccccc1Cc1c(C)nc2c(C(=O)N3CCN(Cc4ccc5c(c4)OCO5)CC3)cnn2c1C`, -0.336; that for `COc1ccccc1Oc1nnnn1-c1ccc(C(N)=O)cc1`, -0.304.

Molecule `CC(C)(C)C(=O)Nc1sc2c(c1C#N)CCCCC2` returned a z-score of -0.474. Regarding `CSc1nc(/C=C2\C=Nc3ccccc32)c(O)n1C`, the z-score turned out to be 0.404. Then `Cn1c(=O)n(C)c2cc(NC(=O)C(F)(F)F)ccc21`, with -0.389; and `C/C(N)=C(/C#N)C(=O)CSc1nc2ccccc2c(=O)n1CCCO`, with -0.389; and `O=c1[nH]c2cccc(Cl)c2n(CCNc2ncc(C(F)(F)F)cc2Cl)c1=O`, with -0.343. The molecule `CCOC(=O)c1c(C)[nH]c(C(=O)COC(=O)[C@H](C)NC(=O)c2ccccc2Cl)c1C` showed a z-score of -0.8. Consider `Cc1ccc(-c2nnn(CCC(=O)N3CCCCC3C)n2)cc1` (configuration not stated), for which the z-score was 1.52. `CN(C)C(=O)NC(Nc1ccc(Cl)cc1Cl)C(Cl)(Cl)Cl` (configuration not stated) came in with a z-score of -1.77. Then `Cn1c(=O)cc(SCC(=O)N2CCOCC2)c2ccc(Cl)cc21`, with 0.102; and `Cc1[nH]c2ccccc2c1C(=O)COC(=O)Cn1cnc2ccccc21`, with -0.295. The result for `O=S(=O)(Nc1ncccn1)c1ccc(Nc2ncnc3ccccc23)cc1` reads 0.439; that for `COc1ccc(C2CC(c3ccccc3)=NN2C(=O)COC(=O)c2cnc(Cl)c(Cl)c2)cc1` (configuration not stated), 0.118. Then `CSc1ccc(/C=C(\C(=O)O)c2ccc(S(=O)(=O)N3CCCCC3)s2)cc1`, with -0.317; and `COc1ccc(O)c(/C=C(\C#N)C(=O)Nc2cccnc2)c1`, with -0.54; and `Cc1ccc(CC(=O)NC(C)CCc2ccccc2)cc1` (configuration not stated), with -0.0658. `C=COC(=O)CSc1nc(-c2cccs2)ccc1C#N` came in with a z-score of -0.173. Regarding `CCOC(=O)c1ccccc1NC(=O)c1c(O)c2ccccc2n(CC)c1=O`, the z-score was -0.929. In the case of `NC(=O)NC(=O)CSc1nnc(-c2ccco2)n1Cc1ccccc1`, the z-score is -0.293.

For `CCc1c(C)c2ccc(OCC(=O)OC)cc2oc1=O`, the z-score is -0.446. For `CC(=O)Nc1ccc(S(=O)(=O)CCC(=O)O)cc1`, the z-score amounted to 0.965. The molecule `CCc1cc2c(=O)c(-c3nc4ccccc4n3C)coc2c(CN2CCOCC2)c1O` registered a z-score of -0.0262. `COc1ccc(C(=O)N2CCN(S(=O)(=O)c3cc(Cl)ccc3OC)CC2)cc1` showed a z-score of -0.215. Take `CN1CCN(/N=C/c2nc(-c3ccccc3Cl)n3ccccc23)CC1`: the z-score was -0.168. Take `N#CC1(c2nc3ccccc3[nH]2)CC1c1ccc2c(c1)OCO2` (configuration not stated): the z-score turned out to be 1.04. The molecule `Cc1cc(C)cc(N=C(NO)c2cccc([N+](=O)[O-])c2)c1` had a z-score of -0.268. With `COc1ccccc1N1CCN(C(=O)CCCCn2c(=O)[nH]c3ccsc3c2=O)CC1`, the z-score is -1.61. With `O=C1/C(=C/c2ccncc2)SC(=S)N1C1CCCCC1`, the z-score was 1.43. In the case of `CC(C)=C1SC(N2CCOCC2)=NC1=O`, the z-score was -0.129.

`COc1ccc(NC(=O)C(C)N2c3cccc4cccc(c34)S2(=O)=O)cc1` (configuration not stated): the z-score was -0.484. `O=C(NC(=S)Nc1cccc(Cl)c1N1CCCCC1)c1cccs1` displayed a z-score of 2.55. In turn, `Cc1nc(CN2CCN(C(=O)NC3(c4ccccc4)CC3)CC2)cs1` displayed a z-score of -0.25. `Cc1c(C(=O)Nc2nc3ccccc3[nH]2)oc2c(Cl)cccc12`: the z-score turned out to be 0.503. Then `COCCN(C(=O)CNC(=O)c1ccco1)C(C(=O)NC1CCCCC1)c1cccs1` (configuration not stated), with -0.0787; and `CNC(=O)C1CC(=O)N(Cc2ccc3c(c2)OCO3)C(=Nc2ccc(F)cc2)S1` (configuration not stated), with -0.565. Regarding `CC1(C)N=C(/C=N/O)CN1O`, the z-score came to 0.0569. Then `COc1ccc(C(C(=O)NC(C)(C)C)N(Cc2cccs2)C(=O)CCC(=O)Nc2cc(C)on2)cc1` (configuration not stated), with -0.379. Turning to `Fc1ccccc1Nc1nc2c(s1)CCc1ccccc1-2`, the z-score was -0.0906.

Molecule `O=C(CCC(=O)c1cccs1)OCc1nnc(-c2ccccc2)o1` yielded a z-score of 1.19. Take `Cc1cc(NC(=O)C2CC(c3ccc(Cl)cc3)=NO2)no1` (configuration not stated): the z-score is -0.101. On to `CC(CN1CCCCC1)OC(=O)c1ccccc1Cl` (configuration not stated), for which the z-score was determined as 0.106. As to `Cn1cc([N+](=O)[O-])c(C(=O)Nc2ccc(-c3nc4ccccc4[nH]3)cc2)n1`, the z-score was -0.22. The molecule `CC(C)CCn1c(O)c(N=Nc2ccccn2)c2ccccc21` gave a z-score of 1.19. For the molecule `Cn1c(CN2CCOCC2)nnc1SCC(=O)NCCc1ccccc1`, the z-score was -0.197. Then `COc1ccccc1NC(c1cccnc1)c1ccc2cccnc2c1O` (configuration not stated), with -0.576; and `O=C(N/N=C/c1ccco1)c1ccncc1`, with 0.0764; and `CN(C)C(=O)C12CCC(C)(c3nc4ccccc4nc31)C2(C)C` (configuration not stated), with 0.0165. `CCOCCCNS(=O)(=O)c1ccc(NC(=O)N2c3ccccc3Sc3ccccc32)cc1` had a z-score of -0.106. In the case of `O=C(Cc1ccc(Cl)cc1)NC(=S)Nc1ccccc1N1CCOCC1`, the z-score came to 0.883. `CCOCCc1nnc(N)s1` came in with a z-score of 0.185. Then `Cc1nc2c3ccccc3n(Cc3ccccc3F)c2s1`, with -0.158; and `O=C(Nc1cc2c(cc1Cl)OCCCO2)c1ccccc1`, with -0.185; and `O=C(c1ccc(Br)cc1)C1CCc2occc2C1=O` (configuration not stated), with 0.304. The result for `COc1cccc(NC(=O)CSCC(=O)O)c1` reads 0.785; that for `c1ccc(-c2nnc(Cn3c4ccccc4c4nc5ccccc5nc43)o2)cc1`, 0.244; that for `O=C1/C(=C/c2cccs2)COc2ccccc21`, -0.229.

`CCOC(=O)C(C(=O)OCC)c1cc(Br)c2noc3c2c1C(=O)c1ccccc1-3`: the z-score was active: -4.38. In the case of `CNC(=O)CSCc1c(Cl)cccc1Cl`, the z-score was determined as 0.903. `O=C(CCCSc1ccccc1)Nc1nc(-c2ccccn2)cs1` gave a z-score of -0.234. Then `CC(C)NS(=O)(=O)c1ccc(OCC(=O)NCC2CCCO2)c(Cl)c1` (configuration not stated), with -0.367; and `Cc1ccc(OCC(=O)NNC(=O)C2CCN(c3nccc(C)n3)CC2)cc1`, with -0.239. Take `Cc1[nH]nc2c1/C(=N/O)CC(c1ccccc1)C2` (configuration not stated): the z-score amounted to 0.0216.

`COc1ccc(-c2nnc(SCC(=O)Nc3ccc4c(c3)OCCO4)n2N)cc1OC` showed a z-score of -0.393. The molecule `CNC(=O)c1ccc(Nc2nnc(-c3ccc(C)c(S(=O)(=O)NCC4CCCO4)c3)c3ccccc23)cc1` (configuration not stated) had a z-score of -0.359. With `COc1cc2c(C(=O)N3CCN(C4CCCCC4)CC3)cn(CC(C)C)c(=O)c2cc1OC`, the z-score was 2.68.

The molecule `CCCn1c(-c2ccc(F)cc2)cnc1SCC(=O)O` had a z-score of -0.678. Then `CCOC(=O)N1CCN(C(=O)CN(c2ccc3c(c2)OCO3)S(C)(=O)=O)CC1`, with 0.564; and `Cc1ccc(C)c(NS(=O)(=O)c2ccc(OCC(=O)N3CCOCC3)cc2)c1`, with -0.409; and `OCCN(CCO)CC(O)COc1ccc(C23CC4CC(CC(C4)C2)C3)cc1` (configuration not stated), with 0.258. Turning to `CCCCCCCNC1=CC(=O)CC(c2ccco2)C1` (configuration not stated), the z-score is -0.08. `Cc1ccc(C(=O)O/N=C/c2c(C(F)(F)F)nn(C)c2Sc2ccc(Cl)cc2)cc1` displayed a z-score of -0.698. Molecule `COC(=O)Nc1ccc(NC(C)=O)cc1` yielded a z-score of 1.52. For the molecule `CCOc1ccccc1CSc1nc2ccccc2[nH]1`, the z-score is 0.599. `CCOC(=O)C(=O)N=Nc1c(O)[nH]c2ccccc12` displayed a z-score of -0.0577. In turn, `CC1(C)CC(=O)C2=C(C1)N(c1ccc(Cl)cc1)C(=O)C2(O)C(F)(F)F` (configuration not stated) yielded a z-score of -0.341. `CCOc1ccc(NS(=O)(=O)c2ccc(NS(=O)(=O)c3ccccc3)cc2)cc1` displayed a z-score of -0.538. In the case of `CC1Cc2ccccc2N1C(=O)CN(C)S(=O)(=O)c1cccc2cccnc12` (configuration not stated), the z-score amounted to 0.261. `CCCCNC(=O)CSc1nc2cc(OC)c(OC)cc2c(=O)n1Cc1ccc(OC)cc1`: the z-score was -0.298. In turn, `COc1ccc(CN2C3CCCC2CC(NC(=O)Nc2ccccc2C)C3)cc1` (configuration not stated) showed a z-score of -0.0636.

Take `COc1ccc(OC)c(-n2c(-c3ccc(C)cc3)n[nH]c2=S)c1`: the z-score turned out to be 0.501.

As for `O=C(NC1CC2CCCC(C1)N2CC(=O)N1CCCc2ccccc21)C1CCCCC1` (configuration not stated), the z-score is -0.505.

Regarding `CCOC(=O)Nc1ccc(C(N)=O)cc1`, the z-score is -0.0604. As to `COC(=O)CNC(=O)CSc1nnc(C)c(=O)[nH]1`, the z-score was -0.199.

`Cc1noc(C)c1S(=O)(=O)N(CC(=O)Nc1ccc2c(c1)OCCO2)c1ccc(C(C)C)cc1` registered a z-score of -0.068.
